Consider 14 molecules from article PMC12136788.

The other results are listed elsewhere or left out.

Sequences and labels used below:
T1: UNK ZnF1-3 (human, UniProt Q9C0B0 31-174)
T1 sequence: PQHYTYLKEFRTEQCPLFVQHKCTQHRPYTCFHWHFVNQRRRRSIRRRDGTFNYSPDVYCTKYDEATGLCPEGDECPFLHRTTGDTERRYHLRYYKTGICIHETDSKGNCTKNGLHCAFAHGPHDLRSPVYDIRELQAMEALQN

B1: chrX:71549762:71549763:+_ENSMUSG00000019087_ENSMUST00000019231|mus_hu|FALSE|FALSE (ssRNA)
RNA: GGGAGUUCUACAGUCCGACGAUCAAACCCGUGUACUUCUUAUUGUUAGCACAACAUCACCAGAAAACGAUAACGACAGCCAAGCAGGACAGACAGUUAAGUAGUACUUCCACACUCCCAAACUCAGGGAGCCCUAUAACCUUACAACAGAGGAUUGAGCAUCA
B2: chr12:70286429:70286430:+_ENSMUSG00000043998_ENSMUST00000060579|mus_mus|FALSE|FALSE (ssRNA)
RNA: GGGAGUUCUACAGUCCGACGAUCACACUCCUGCUGCUUCAGUUUCCACAUCUUUUUGAAGACAUGGUAAAAGUCUGGGGCUAAGUAGUGGUCCUCUUCCAGGAAGAGUAUAAGGCCAGUGUAAUCUUGAAGAACUUUGACUCUCAACAGAGGAUUGAGCAUCA
B3: chr16:94664741:94664742:+_ENSMUSG00000040785_ENSMUST00000117648|mus_hu|mus_mus_mus_hu_False|1_28 (ssRNA)
RNA: GGGAGUUCUACAGUCCGACGAUCUGGUACUGAUCUUGGUAGCUGAUAUUCAGGAGAAAGGCUGGCCAAGGGUGUAUAUAUGCUGGUGUACUGGGGCAAACCUGGUACCAUGUUAAUGUAUGCUGGCGGUGUCUGGGUGCCAAACAACAGAGGAUUGAGCAUCA
B4: chr9:128199989:128199990:-_ENSG00000119487_ENST00000373498|hu_mus|motif|central (ssRNA)
RNA: GGGAGUUCUACAGUCCGACGAUCCAAAGAAGCACACUUGACUCUGAGAUGCUUAGACACAAUGAUUUAAAAAAUGUCCGGAACACAGGUCGUAUAAGAUAUCGGCUGUGGCCCUGGCCCAAGGAUGCUGCCACAGGCGGGACCCAACAGAGGAUUGAGCAUCA
B5: chr5:132424181:132424182:+_ENSG00000170606_ENST00000304858|hu_mus|FALSE|FALSE (ssRNA)
RNA: GGGAGUUCUACAGUCCGACGAUCUGCACACUGCAGAGCACAGCCUCGAGUGACAGCUUCAUCUGCAUUUAAUGUUGUGCUGAGUUCUUUACCAAAAAACUUGCUGAUCUUCUCUUUCACUGCAGGGAUUCGUGUGGCACCACCCAACAGAGGAUUGAGCAUCA
B6: chr11:87044885:87044886:-_ENSMUSG00000046442_ENSMUST00000055438|mus_hu|motif|central (ssRNA)
RNA: GGGAGUUCUACAGUCCGACGAUCAGGACCAAACAUCUCAACUGGUAGCAAAAACUGGGCACUGUGAGGUUUGCUUGCUUCGGUUUGUGUGAGAUCUAGGUAGCCUGGGUCUUCCAGCACGUUGAUUUGGGACCCUGGGCUCAGCAACAGAGGAUUGAGCAUCA
B7: 103024646_103024766_6071_3pUTR_ENSMUSG00000009575_ENSMUST00000118152|mouse|control|control (ssRNA)
RNA: GGGAGUUCUACAGUCCGACGAUCGAGUUCAAUUCUCUCCUACCCACCCACACAAACAGGAAUGCACACAUCCCCUCAUAAUCCCAGUAUUUAAGGCUGAGGCAGGAGUACUACAAGCACUAGGGCCAGCCUAGGCUCUUUAAACAACAGAGGAUUGAGCAUCA
B8: 105400607_105404228_2276_CDS_ENSG00000114423_ENST00000394027|human|control|control (ssRNA)
RNA: GGGAGUUCUACAGUCCGACGAUCCUCUGAAGAUGGACCAUGUGUUCCAUUCAGCAUACAGUGACCAUUAUCACAAGACCGAACAGGAGGUUUUACAUUAUGACAAUGAGAUGGUUGUGAAUUCAGGGAAACAGGGUGGGAUGACAACAGAGGAUUGAGCAUCA
B9: chr7:140881322:140881323:-_ENSMUSG00000030979_ENSMUST00000135760|mus_hu|FALSE|FALSE (ssRNA)
RNA: GGGAGUUCUACAGUCCGACGAUCAAUUUGAUCGAUAUUGUCACCAGAUAACUCCUGAAUGUGCUUGAGACUGUAUGUGAGGCCAGAGGGACUAAAAAAUGUGAUGCUGGCUGGAACCCCCUGCUGGGAAUAGUAGCUGUUCAGCAACAGAGGAUUGAGCAUCA
B10: chr11:46405157:46405158:+_ENSG00000110492_ENST00000395566|hu_hu|hu_hu_hu_mus_False|68_68 (ssRNA)
RNA: GGGAGUUCUACAGUCCGACGAUCCCCUCCCCACUUUGGGCACUUGGUGUGGGCGUGAGAGGACAGGAUGAUUGAUUAGAGCUGACAGGAAGACAAAAGGCACUGGUGGGUUAUAUCUUGGGCCUGUGGGAGAGGAGGGCUCCGCAACAGAGGAUUGAGCAUCA
B11: chr11:2905015:2905016:-_ENSG00000129757_ENST00000380725|hu_mus|FALSE|FALSE (ssRNA)
RNA: GGGAGUUCUACAGUCCGACGAUCAGUUUUCAGAUUUCCACAAAACCGUGGGCUGCUCUACGCAACCAUCUCCGGUUCCUGCUACAUGAACGAAAGGUCCCAGCCGAAGCCCAGAGUUCUUCCAUCGUCCGCUGCCCAGAUGCCCAACAGAGGAUUGAGCAUCA
B12: chr14:66974463:66974464:+_ENSMUSG00000022044_ENSMUST00000074523|mus_hu|mus_mus_mus_hu_False|38_48 (ssRNA)
RNA: GGGAGUUCUACAGUCCGACGAUCUUGUAGGACGACUUAUUCAGGGGAUCGGCCAGGAAGCAGGAGCAGAACAAGGACACCAGCGGGAGUUCCUUCAUCUUCUCCUUGUAGGCAGCAAGGGUCAUGUUUCUGGGAUCUGGUGGCCAACAGAGGAUUGAGCAUCA
B13: chr3:151883435:151883436:+_ENSMUSG00000028034_ENSMUST00000166984|mus_mus|FALSE|FALSE (ssRNA)
RNA: GGGAGUUCUACAGUCCGACGAUCCAUUUCUCCAUUUCUUCCUAUUACAAUGCCAACAGCAAAUCUUGGAAUUGGGACAUCUAUCCCUUCAUUGCCUCCUAUUCUUGAGCCAUACUCAUUCCGCACUUCUCUGAAACCACCUUGCAACAGAGGAUUGAGCAUCA
B14: chr10:70691390:70691391:-_ENSMUSG00000003923_ENSMUST00000092430|mus_hu|FALSE|FALSE (ssRNA)
RNA: GGGAGUUCUACAGUCCGACGAUCCUUUAUUGUGCGACGUAGAAGAUCCUUUCGUCCAACUUCAAUCAUUUGUUCUUCCCAAGACUUCAUUUCAUUAUGAUAACGAGUUUCGUCCUCUUUAGCAUGCUGAAUAUAUAAUUCCUUCAACAGAGGAUUGAGCAUCA

In the experiment the target is T1, UNK ZnF1-3. In words: nsRBNS (natural sequence RNA bind-n-seq); RBNS binding buffer (assumed for nsRBNS): 25 mM Tris pH 7.5, 150 mM KCl, 3 mM MgCl2, 0.01% Triton X-100, 500 ug/ml BSA, 20 U/ml SUPERase-In, 4 C; UNK is unkempt and MSI1 is Musashi-1; names of the RNAs are library labels; protein concentration not given here; high values mean tight binding.
B1 registered a binding signal of 1.44 enrichment R.

For B2, the binding signal turned out to be 0.752 enrichment R.

B3 returned a binding signal of 1.19 enrichment R.

B4 gave a binding signal of 1.32 enrichment R.

B5 showed a binding signal of 0.962 enrichment R.

For the molecule B6, the binding signal is 1.12 enrichment R.

As for B7, the binding signal is 0.954 enrichment R.

B8 had a binding signal of 1.35 enrichment R.

Turning to B9, the binding signal came out at 1.74 enrichment R.

The molecule B10 came in with a binding signal of 1.96 enrichment R.

B11 displayed a binding signal of 0.719 enrichment R.

In turn, B12 showed a binding signal of 2.48 enrichment R.

B13 registered a binding signal of 1.07 enrichment R.

For the molecule B14, the binding signal was found to be 0.708 enrichment R.
